# Laboratory results from article PMC4336329 (PLoS ONE, 2015).
# In all, about 310,000 compounds went through this assay and about 14,000 (4.5%) showed an effect of 50% or more. Effects have a minus sign here. The list shows a part of the results.
# Biological target: human ether-à-go-go-related gene (hERG) potassium channel (human, UniProt Q12809)
# Assay: primary screen, population patch clamp on CHO cells stably expressing hERG
# 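Note: peak tail current of the secondary pulse compared with the same well before compound.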
# Chain of human ether-à-go-go-related gene (hERG) potassium channel (Q12809 whole entry, looked up): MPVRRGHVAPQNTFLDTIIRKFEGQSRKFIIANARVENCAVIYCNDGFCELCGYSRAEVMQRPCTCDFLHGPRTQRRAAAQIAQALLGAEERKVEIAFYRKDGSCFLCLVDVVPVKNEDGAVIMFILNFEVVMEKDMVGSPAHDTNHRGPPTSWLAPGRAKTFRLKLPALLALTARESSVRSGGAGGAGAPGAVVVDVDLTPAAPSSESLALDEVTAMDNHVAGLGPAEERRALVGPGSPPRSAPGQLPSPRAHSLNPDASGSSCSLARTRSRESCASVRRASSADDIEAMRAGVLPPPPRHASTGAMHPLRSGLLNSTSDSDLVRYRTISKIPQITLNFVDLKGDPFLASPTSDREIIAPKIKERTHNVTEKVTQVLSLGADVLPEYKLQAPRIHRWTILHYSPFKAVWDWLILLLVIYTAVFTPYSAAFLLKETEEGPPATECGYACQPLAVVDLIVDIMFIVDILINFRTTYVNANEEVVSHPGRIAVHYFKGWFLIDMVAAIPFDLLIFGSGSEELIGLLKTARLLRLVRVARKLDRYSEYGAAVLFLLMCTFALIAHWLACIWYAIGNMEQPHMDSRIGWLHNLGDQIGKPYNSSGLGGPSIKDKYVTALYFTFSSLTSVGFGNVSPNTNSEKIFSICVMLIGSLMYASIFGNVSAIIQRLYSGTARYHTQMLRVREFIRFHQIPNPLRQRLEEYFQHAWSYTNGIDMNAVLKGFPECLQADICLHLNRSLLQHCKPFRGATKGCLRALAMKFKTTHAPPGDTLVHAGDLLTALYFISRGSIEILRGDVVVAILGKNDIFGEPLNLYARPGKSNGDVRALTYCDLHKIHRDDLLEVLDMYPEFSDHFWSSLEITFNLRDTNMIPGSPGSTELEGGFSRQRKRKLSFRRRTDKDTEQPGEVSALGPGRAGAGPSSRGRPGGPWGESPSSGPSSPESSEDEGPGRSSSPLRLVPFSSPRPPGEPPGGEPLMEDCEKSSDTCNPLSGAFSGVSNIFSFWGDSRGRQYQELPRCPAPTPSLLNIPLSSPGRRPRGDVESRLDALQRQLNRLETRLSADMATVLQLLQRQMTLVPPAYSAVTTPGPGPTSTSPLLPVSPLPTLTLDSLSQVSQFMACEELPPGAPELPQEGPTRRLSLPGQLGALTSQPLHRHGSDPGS
row,SMILES,"hERG current change (%, negative = inhibition) at 10uM [%]"
1,CCCC(C)NC(C)C(=O)NC1CCCC1 (stereo not drawn),17.3
2,O=C(c1sc2cc([N+](=O)[O-])ccc2c1Cl)N1CCCCC1,-27.3
3,Brc1cc2c(cc1/C=N/Nc1nc(N3CCCC3)nc(N3CCOCC3)n1)OCO2,-51.3
4,COc1ccc(O)c(C(=O)c2cnc3c(c2)c(C)nn3CCO)c1,-1.94
5,COc1ccc(CCNS(=O)(=O)c2ccc(S(=O)(=O)N3CCCC3)cc2)cc1OC,-6.61
6,CCOc1ccc(NC(=O)c2ccc3[nH]c(=O)c(=O)[nH]c3c2)cc1,16.8
7,O=C(/C=C/c1ccc(OCCCF)cc1)NCc1ccc(Cl)cc1,10.5
8,CSc1c(C#N)c(N)nc2sc(C(=O)c3ccccc3)c(N)c12,7.35
9,CC(C)(C)C(=O)Nc1nnc(CCc2ccccc2)s1,-13.5
10,Nc1nnc(SCC(=O)Nc2cc(F)ccc2F)s1,7.81
11,N#CCCn1cc(/C=N/NC(=O)c2ccncc2)c(-c2ccc(F)cc2)n1,5.2
12,CCOc1ccc(C2=Nn3c(nnc3-c3ccco3)SC2)cc1,-10.7
13,COc1cc(CN2CCC(C(=O)NCC(C)(C)CN(C)C)CC2)ccc1OCc1ccccc1.O=C(O)C(=O)O,13.6
14,Cc1c(Cl)cccc1NC(=S)NN,10.2
15,CC(C)Cc1nc(SCC(=O)Nc2nnc(CC(C)C)s2)n[nH]1,-10.8
16,O=C(CO/N=C/c1c(Cl)cccc1Cl)NNC(=O)c1cccc(Cl)c1,7.18
17,O=S(=O)(c1ccc(F)cc1)N1CCN(c2ccc(-c3ccccc3)nn2)CC1,1.27
18,CC1C(=NO)C(C)C(c2ccccc2)NC1c1ccccc1 (stereo not drawn),-16.6
19,O=C1NC(Nc2nccs2)(C(F)(F)F)C(=O)N1CCc1ccccc1 (stereo not drawn),3.44
20,CCCn1c(N)c(C(=O)CSc2nnc(-c3cccnc3)n2-c2ccc(C)cc2C)c(=O)[nH]c1=O,0.586
21,Nc1n[nH]c(CCCO)n1,22.9
22,Cc1ccc(C(=O)O)cc1NC(=O)c1ccc2c(c1)C(=O)N(c1ccc([N+](=O)[O-])cc1)C2=O,20.3
23,Cc1noc(C)c1CSc1nc2sc(C)c(C)c2c(=O)n1-c1ccccc1,22.6

row,SMILES,"hERG current change (%, negative = inhibition) at 10uM [%]"
1,NC(=O)Cn1cc(C(=O)C(=O)N2CCOCC2)c2ccccc21,1.6
2,O=C(CN1CCN(c2ccccc2)CC1)Nc1ccccc1Sc1ccccc1,9.55
3,CC(O)CNc1nc2c(c(=O)n(Cc3ccc(Cl)cc3)c(=O)n2C)n1C (stereo not drawn),-7.54
4,CC(=O)/C(=N\Nc1ccc(Cl)cc1Cl)Sc1nnc(-c2ccccc2)n1-c1ccccc1,13
5,CCN(CC(=O)Nc1ccc(NC(C)=O)cc1)C(=O)c1ccccc1SCc1c(C)noc1C,2.73
6,COc1ccc(OC)c(CN2CCN(Cc3cc(=O)oc4cc(O)ccc34)CC2)c1,-74.8
7,OCC[C@H]1C[C@@H](O)[C@H](O)[C@]2(OCCc3ccccc32)O1,-0.605
8,O=C(OCc1ccccc1)N1CCCC1/C=C/CN1CCOCC1 (stereo not drawn),-1.77
9,CN(C(=O)/C=C/c1ccco1)c1ccccc1C(=O)O,4.96
10,CCOC(=O)C1CCCN(c2nc3ccccc3nc2C(C#N)C(=O)NCc2ccccc2)C1 (stereo not drawn),5.21
11,CCc1noc(C)c1C(=O)Nc1ccc(Cl)c(S(=O)(=O)N2CCCCC2)c1,-71.2
12,CCCNC(=O)Cc1c(OC)ccc2cc(Br)ccc12,-0.00892
13,O=C(Nc1cccc(-c2cccc(Cl)c2)c1)C1CCN(Cc2ccon2)CC1,-52.7
14,O=c1c(C(c2ccc(O)cc2)c2c(O)nc3n(c2=O)CCCS3)c(O)nc2n1CCCS2,-5.63
15,CN(C)CCN(C(=O)C1=COCCO1)c1nc2ccc(Cl)cc2s1.Cl,-73.1
16,COc1ccc(CCNC(=O)c2cc3c(=O)n4ccccc4nc3n(CC3CCCO3)c2=N)cc1OC (stereo not drawn),-78.4
17,Cc1ccc(NC(=O)N2N=C(c3ccc(F)cc3)CC2c2ccc(F)cc2)cc1 (stereo not drawn),-12.9
18,Br.O=S(=O)(c1ccc(C2=CSC3=NCCN23)cc1)N1CCOCC1,-5.37
19,Cc1cc2c(cc1S(=O)(=O)NCCc1ccc(Cl)cc1)OCC(=O)N2,-21.3
20,CCCCN(C)CCn1c(=S)[nH]c2cc(OCC)c(OCC)cc2c1=O,-55.8
21,CCn1c(SCC(=O)Nc2nc(-c3ccccc3)cs2)nc2c1c(=O)n(C)c(=O)n2C,3.14
22,CCn1c(C)c(P(=O)(N2CCOCC2)N2CCOCC2)c2ccccc21,10.1
23,COCCNC(=S)N1CCC(C(=O)c2ccc3c(c2)OCCO3)CC1,32.7

row,SMILES,"hERG current change (%, negative = inhibition) at 10uM [%]"
1,OC(COc1ccccc1)Cn1cc(Br)cn1 (stereo not drawn),0.0411
2,COC(=O)c1cc2ccsc2n1CC(=O)N(C)C1CCCCC1,10.5
3,CCOc1ccc(N(CC(=O)OC)S(=O)(=O)c2c(C)noc2C)cc1,2.38
4,C=CCn1c(=NC(=O)c2ccco2)sc2cc(C(=O)OC)ccc21,-6
5,CCOC(=O)/C=C1\SCC(=O)N1CC(=O)NC(C)C,21.2
6,CCOC(=O)/C(C#N)=C\c1ccc(OC)c(OC)c1,25
7,COc1ccc(C2C(C#N)C(C#N)N3CCCN23)cc1 (stereo not drawn),-9.92
8,COCCN=C1Sc2nc3cc(C)c(C)cc3cc2CN1Cc1cccs1,-0.0142
9,COC(=O)c1c(C)oc(C)c1S(=O)(=O)N1CCOCC1,15.6
10,CCO/C(C)=C1\N=C(c2ccc(Cl)cc2)OC1=O,2.47
11,COc1ccc(S(=O)(=O)N(C)c2c(C)n(C)n(-c3ccccc3)c2=O)cc1OC,2.8
12,O=C1NC(c2ccccc2)=C(c2nc3ccccc3s2)C(c2ccc(F)cc2)N1 (stereo not drawn),5.2
13,CCOc1ccc(-c2ccc(/C=C3/C(=N)N4C(C)=CSC4=NC3=O)o2)c([N+](=O)[O-])c1,2.92
14,O=C(c1ccc2c(=O)n(C3CCCC3)c(=S)[nH]c2c1)N1CCN(C2CCCCC2)CC1,6.5
15,CSc1nc(Cl)c(Cc2ccc(OC(C)C)cc2)c(N(C)C)n1,2.91
16,S=C(Nc1ccccc1)N1CCn2cccc2C1c1cccnc1 (stereo not drawn),-31.1
17,CC(C)Oc1cccc(C(=O)C2CCCN(Cc3ccc4nonc4c3)C2)c1 (stereo not drawn),-1.53
18,Cc1ccc(/C(N)=N/OC(=O)CCc2ccccc2)cc1,-15.2
19,Cc1nc(NCc2ccco2)c(C#N)c2c1COC(C)(C)C2,9.44
20,CCOC(=O)c1cc(CO)cc(C(=O)OCC)c1,13.9
21,CC(C)C(NC(=O)C1CCC(C(C)(C)C)CC1)C(=O)NCCCN1CCCCC1 (stereo not drawn),-24.8
22,Cc1nnc(NCc2ccco2)s1,-6.18
23,CC(=O)NC(C)CCc1ccccc1 (stereo not drawn),10.9

row,SMILES,"hERG current change (%, negative = inhibition) at 10uM [%]"
1,Cc1c(C)c(C)c(S(=O)(=O)N2CCNCC2)c(C)c1C.Cl,-11.2
2,Cc1c(C(=O)NCCC2=CCCCC2)sc2ncnc(N3CCCCC3C)c12 (stereo not drawn),-5.06
3,NC(=O)c1ccc(N=Cc2c(O)ccc3ccccc23)cc1,12.9
4,Cn1c(CCC(=O)Nc2ccc(F)cc2)nc2cc(S(=O)(=O)N3CCOCC3)ccc21,-17.7
5,Cn1c(=O)n(CCOc2ccccc2Cl)c2ccccc21,-19.2
6,C=C(C)Cn1c(CCCNC(=O)CCC)nc2ccccc21,-4.07
7,Cc1cccc(C)c1OCC(=O)N1CCc2ccccc2C1,-1.91
8,O=C(Nc1ccc(Br)cc1)c1ccccc1Br,-0.663
9,CCc1ccc(NC(=O)c2ccc3nc(N)sc3c2)cc1,-9.03
10,COC(=O)c1ccc(NC(=O)C2CC(=O)N(c3ccc(C)cc3)C2)cc1 (stereo not drawn),9.53
11,COc1ccc(S(=O)(=O)Nc2ccc(Cc3ccncc3)cc2)cc1OC,-19.8
12,CC(=O)c1sc(NC(=O)c2ccc3c(c2)OCO3)nc1C,3.04
13,CCn1nnc(NC(=O)c2ccccc2Br)n1,25.6
14,COc1ccc(C(=O)Nc2cc3c4c(c2)CC(=O)N4CCC3)c(OC)c1,-3.06
15,CCCCNc1nc2c(-c3ccccc3)nnn2c2ccccc12,13.7
16,Br.COc1ccccc1N1Cc2ccccc2C1,-13.2
17,CCC1CCCCN1S(=O)(=O)c1ccccc1 (stereo not drawn),-13
18,Cc1ccc(NC(=O)C(C)Sc2nnc(-c3cccnc3)n2-c2ccccc2)cc1 (stereo not drawn),-81.4
19,COc1ccc(Cn2c(-c3ccco3)nc3oc4ccccc4c(=O)c3c2=O)cc1,-0.648
20,CS(=O)(=O)N(Cc1ccccc1Cl)c1ccc(C(=O)NCc2cccnc2)cc1,-38.5
21,CC1=CC(=Nc2c(C)n(C)n(-c3ccccc3)c2=O)C=CC1=O,-22.5
